These are yes or no findings as the source states them, for the method shown. Some binding calls cover weakened binding; strength is not graded here.
T1: human Claudin 6 (human, UniProt P56747 1-220)
T1 sequence (looked up): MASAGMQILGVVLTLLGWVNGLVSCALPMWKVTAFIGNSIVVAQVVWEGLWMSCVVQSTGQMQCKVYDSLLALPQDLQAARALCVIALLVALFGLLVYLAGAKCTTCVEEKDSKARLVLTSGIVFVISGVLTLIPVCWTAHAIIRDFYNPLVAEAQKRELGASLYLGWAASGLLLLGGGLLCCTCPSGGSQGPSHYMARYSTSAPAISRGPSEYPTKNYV

T2: human Claudin 9 (human, UniProt O95484 1-217)
T2 construct: whole, on cells; also called CLDN9; CLND9
T2 sequence (looked up): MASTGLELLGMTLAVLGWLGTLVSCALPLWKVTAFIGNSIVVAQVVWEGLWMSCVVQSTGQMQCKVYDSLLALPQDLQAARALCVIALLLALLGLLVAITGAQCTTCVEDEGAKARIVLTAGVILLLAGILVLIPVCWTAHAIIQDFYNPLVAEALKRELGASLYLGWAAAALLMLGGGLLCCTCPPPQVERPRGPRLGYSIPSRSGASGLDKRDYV

T3: rat Claudin 6 (rat) (UniProt B4F7F0)
T3 sequence: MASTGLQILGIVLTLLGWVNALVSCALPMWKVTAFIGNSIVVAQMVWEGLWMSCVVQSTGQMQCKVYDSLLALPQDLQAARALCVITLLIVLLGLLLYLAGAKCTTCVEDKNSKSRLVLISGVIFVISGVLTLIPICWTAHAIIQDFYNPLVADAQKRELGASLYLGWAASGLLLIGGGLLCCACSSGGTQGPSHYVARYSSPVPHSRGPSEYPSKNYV


Experiments:
human Claudin 6 [1] = target: T1, human Claudin 6; experiment: flow cytometry, HEK293/H_CLDN6 cells
human Claudin 6 [2] = target: T1, human Claudin 6; experiment: flow cytometry, Ovcar3 and Ov90 cells (endogenous CLDN6)
human Claudin 9 = target: T2, human Claudin 9; experiment: flow cytometry, HEK293/H_CLDN9 cells
Method: In this example, cell-based binding of z5 toward human CLDN9 engineering expressing cells were assessed using flow cytometry.
Briefly, 2 cell lines were incubated with antibodies (from 100 nM, 6 folds dilution, 8 points) at 4° C. for 60 minutes. Cells were pelleted and washed twice with 2% FBS/PBS buffer, and stained with fluorescent conjugated secondary antibody at 4° C. for 30 minutes. After that the cells were washed twice and resuspended in 80 μL of 2% FBS/PBS buffer. Fluorescent signal of binding was detected using Agilent. The EC50 was calculated using the GraphPad software.

rat Claudin 6 (rat) = target: T3, rat Claudin 6 (rat); experiment: flow cytometry, engineered cells expressing rat CLDN6

Binder	binding (human Claudin 6 [1])	binding (human Claudin 9)	further results
59-H12C5 (antibody, V domains shown, Tested as chimeric antibody) VH: EVQLVESGGGLVQPGGSLKLSCAASGFTFSSHGMSWVRQTADRGLELVASINSNGGRTYYPDSMKGRFTISRDNAKNTLYLQLSSLQPEDTALYYCACYYDNTYYAMDYWGQGTSLTVSS VL: QIVLTQSPAIMSASLGERVTMTCTASSSVSSSSLHWYQQKPGSSPKLWIYTTSTLASGVPARFSGSGSGTSYSLTISSMEAEDAATYYCHQYHRSPPTFGGGTKLEIK	binds	binds	
67-C12E11 (antibody, V domains shown, Tested as chimeric antibody) VH: EVQLQQSGPELVKPGASVKISCKTSGYTFTEYTMHWVKQSHGKSLEWIGGINPNNGGTSYNQKFKGKATLTVDKSSSTAYMELRSLTSEDSAVYYCARGMVVAFYFDSWGQGTTLTVSS VL: DIQMTQSPASQSASLGESVTITCLASQTIGSWLAWYQQKPGKSPQLLIYAATSLADGVPSRFSGSGSGTKFSFKISSLQAEDFVSYYCQQLYSTPYTFGGGTKLEIK	binds		
59-A2E6 (antibody, V domains shown, Tested as chimeric antibody) VH: EVQLQQSGPELVKPGASVKISCKTSGYTFTEYTMHWVKQSHGKSLEWIGGINPKNGGTSYNQKFKGKATLTVDKSSSTVYMEFRSLTTEDSAVYYCARGMLVAFYFDCWGQGTTLTVSS VL: DIQMTQSPASQSASLGESVTITCLASQTIGTWLAWYQQKPGKSPQLLIYAATSLADGVPSRFSGSGSGTKFSFKISSLQAEDFVSYYCQQLYSTPYTFGGGTKLEIK	binds		
81-H10F8 (antibody, V domains shown, Tested as chimeric antibody) VH: EVQLQQSGPELVKPGASVKISCKTSGYTFTEYTMHWVKQSHGKSLEWIGGINPNNGGTSYNQKFKGKATLTVDKSSRTAYMELRSLTSEDSAVYYCARGMVVAFYFDCWGQGTTLTVSS VL: DIQMTQSPASQSASLGESVTITCLASQTIGTWLAWYQQKPGKSPQLLIYAATGLADGVPSRFSGGGSGTKFSFKISSLQVEDFVSYYCQQLYSTPYTFGGGTKLEIK	binds		
97-C10E1-2-P1.z5 (antibody, V domains shown, also called candidate antibody) VH: QVQLVQSGAEVKKPGASVKVSCKASGYAFTGYTMNWVRQAPGQGLEWIGLSNPYNAGTIYNQKFKGRVTMTVDKSTSTVYMELSSLRSEDTAVYYCARNYYYGSSYAYYYAMDYWGQGTTVTVSS VL: DIVVTQSPSSLSTSVGDRVTITCRSSTGAVTTSNYANWVQEKPGKAFKGLIGGTNNRAPGVPARFSGSLSGDDAALTISSAQPEDFATYFCALWYSNHWVFGGGTKVEIK		no binding (tested: 100 nM (highest concentration tested))	binding (rat Claudin 6 (rat)): binds
97-C10E1-2-P1.z2 (antibody, V domains shown) VH: QVQLVQSGAEVKKPGASVKVSCKASGYAFTGYTMNWVRQAPGQGLEWIGLSNPYNAGTIYNQKFKGRVTMTVDKSTSTVYMELSSLRSEDTAVYYCARNYYYGSSYAYYYAMDYWGQGTTVTVSS VL: EAVVTQSPATLSVSPGERATLSCRSSTGAVTTSNYANWVQEKPGQAFRGLIGGTNNRAPGIPARFSGSLSGDEATLTISSLQSEDFAVYFCALWYSNHWVFGGGTKVEIK		no binding (tested: 100 nM (highest concentration tested))	

The next lines start with results.

binding (human Claudin 6 [1])	Binder	binding (human Claudin 9)	further results
binds	83-F6A6 (antibody, V domains shown, Tested as chimeric antibody) VH: QVQLQQSAPELARPGASVRMSCKASGYTFTTYTMHWVKQRPGQGLEWIGFIIPSSGYTEYNQNLKDKTTLTADKASSTAYMQLTSLTSEDSAVYYCARQFSLITTGFGYALDYWGQGTSVTVSS VL: DIVMTQSRKFMSTSVGDRVSITCKASQDVSTAVAWYQQKPGQSPKLLLYWASTRHTGVPDRFTGSGSGTDYTLTISSVQAEDLALYYCQQHYSTPLTFGAGTKLELK		
binds	97-C10E1-2 (antibody, V domains shown, Tested as chimeric antibody; also called chimeric antibody 97-C10E1-2) VH: EVQLQQSGPELVKPGASMKISCKASGYAFTGYTMNWVKQSHGKNLEWIGLSNPYNGGTIYNQKFKGKATLTVDKSSSTAYMELLSLTSEDSAVYYCARNYYYGSSYAYYYAMDYWGQGTSVTVSS VL: QAVVTQESALTTSPGETVTLTCRSSTGAVTTSNYANWVQEKPDHLFTGLIGGTNNRAPGVPARFSGSLIGDKAALTITGAQTEDEAIYFCALWYSNHWVFGGGTKLTVL		binding (human Claudin 6 [2]): binds
binds	85-H10A5 (antibody, V domains shown, Tested as chimeric antibody) VH: EVQLQQSGPELVKPGASVKISCKTSGYTFTEYPMHWVKQSHEKSLEWIGGINPKNGDANSNQKFKGKATLTVDKSSSTAYMELRSLTSEDSAVYYCARGWLLLFDVWGAGTMVTVSS VL: DIQMTQSSSSFSVSLGDRVTISCKASEDIYNRLAWYQQKPGNAPRLLISGATSLETGIPSRFSGSGSGKDYTLSITTLQTEDVAAYYCQQYWSSPLTFGAGTKLELR		
